According to article PMC9947638:
No constants are given. Whether binding was seen depends on the method and setting. For part of these data: Binding seen in cells or lysates may run through a third protein. Some entries that bind do so weakly or less than the wild type. For part of these data: Where a sequence is shown, tags or fusion partners need not be part of it. Blank lines part the entries; values can stand above or below the molecule they belong to.

By UniProt entry, the sequences of proteins in these tests, tags left out. Where a name states a change or a piece, a line headed by the entry shows the natural chain unless it says otherwise. Residues count along the entry.
UniProt P37198: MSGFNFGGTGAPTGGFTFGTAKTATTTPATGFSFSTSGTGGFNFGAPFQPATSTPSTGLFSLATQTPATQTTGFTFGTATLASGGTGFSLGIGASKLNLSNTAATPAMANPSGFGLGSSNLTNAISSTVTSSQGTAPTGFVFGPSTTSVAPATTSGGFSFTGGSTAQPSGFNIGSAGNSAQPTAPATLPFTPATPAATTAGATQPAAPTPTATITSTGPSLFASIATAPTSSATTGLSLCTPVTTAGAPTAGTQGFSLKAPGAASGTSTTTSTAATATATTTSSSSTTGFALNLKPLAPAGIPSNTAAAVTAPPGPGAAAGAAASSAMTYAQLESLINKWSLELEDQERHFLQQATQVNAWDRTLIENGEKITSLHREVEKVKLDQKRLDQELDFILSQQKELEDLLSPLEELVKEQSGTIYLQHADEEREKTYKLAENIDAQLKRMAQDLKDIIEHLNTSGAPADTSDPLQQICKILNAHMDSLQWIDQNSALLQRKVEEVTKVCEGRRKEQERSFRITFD
GST-Nup62-C1: residues 328-458 of P37198
UniProt Q04206: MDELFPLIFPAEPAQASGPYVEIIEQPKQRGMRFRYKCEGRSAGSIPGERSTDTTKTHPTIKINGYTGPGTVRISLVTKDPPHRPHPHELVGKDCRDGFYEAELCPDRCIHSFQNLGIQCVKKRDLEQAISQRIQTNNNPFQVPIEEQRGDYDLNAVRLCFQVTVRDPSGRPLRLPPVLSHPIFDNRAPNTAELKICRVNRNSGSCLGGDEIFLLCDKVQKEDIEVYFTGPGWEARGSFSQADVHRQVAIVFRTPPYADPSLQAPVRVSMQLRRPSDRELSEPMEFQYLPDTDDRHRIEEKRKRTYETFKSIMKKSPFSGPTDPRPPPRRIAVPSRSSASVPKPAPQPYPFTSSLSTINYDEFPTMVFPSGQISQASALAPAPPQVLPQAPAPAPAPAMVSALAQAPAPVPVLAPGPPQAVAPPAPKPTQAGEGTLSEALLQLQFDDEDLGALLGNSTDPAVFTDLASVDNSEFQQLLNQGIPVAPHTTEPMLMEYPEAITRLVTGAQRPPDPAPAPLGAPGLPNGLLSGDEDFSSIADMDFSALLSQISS

Experiments:
GFP-Nup88-delC (human) = target: T1, GFP-Nup88-delC (human) (UniProt Q99567); experiment: pull-down; GBP pull-down: lysates of HEK293T cells expressing GFP fusions incubated with GST-GBP at 4 °C 12 h, glutathione beads 4 h; blot for endogenous Nup62
T1 sequence: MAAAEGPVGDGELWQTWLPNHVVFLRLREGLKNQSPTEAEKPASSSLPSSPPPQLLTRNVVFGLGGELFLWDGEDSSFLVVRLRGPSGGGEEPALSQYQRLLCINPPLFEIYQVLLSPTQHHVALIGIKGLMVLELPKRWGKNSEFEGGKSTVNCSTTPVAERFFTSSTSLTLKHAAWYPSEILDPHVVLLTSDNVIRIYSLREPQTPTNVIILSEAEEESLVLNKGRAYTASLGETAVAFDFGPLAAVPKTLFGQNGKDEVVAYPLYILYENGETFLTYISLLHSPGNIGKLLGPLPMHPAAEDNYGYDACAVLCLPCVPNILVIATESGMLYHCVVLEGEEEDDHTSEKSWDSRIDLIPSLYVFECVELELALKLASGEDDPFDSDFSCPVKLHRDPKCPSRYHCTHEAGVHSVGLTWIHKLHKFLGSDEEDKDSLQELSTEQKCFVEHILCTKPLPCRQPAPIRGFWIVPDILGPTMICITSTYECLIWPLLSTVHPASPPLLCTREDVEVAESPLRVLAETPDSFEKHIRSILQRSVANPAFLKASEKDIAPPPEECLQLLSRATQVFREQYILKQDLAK

GFP-Nup88 (human) [1] = target: T2, GFP-Nup88 (human) (UniProt Q99567); experiment: as above
T2 sequence: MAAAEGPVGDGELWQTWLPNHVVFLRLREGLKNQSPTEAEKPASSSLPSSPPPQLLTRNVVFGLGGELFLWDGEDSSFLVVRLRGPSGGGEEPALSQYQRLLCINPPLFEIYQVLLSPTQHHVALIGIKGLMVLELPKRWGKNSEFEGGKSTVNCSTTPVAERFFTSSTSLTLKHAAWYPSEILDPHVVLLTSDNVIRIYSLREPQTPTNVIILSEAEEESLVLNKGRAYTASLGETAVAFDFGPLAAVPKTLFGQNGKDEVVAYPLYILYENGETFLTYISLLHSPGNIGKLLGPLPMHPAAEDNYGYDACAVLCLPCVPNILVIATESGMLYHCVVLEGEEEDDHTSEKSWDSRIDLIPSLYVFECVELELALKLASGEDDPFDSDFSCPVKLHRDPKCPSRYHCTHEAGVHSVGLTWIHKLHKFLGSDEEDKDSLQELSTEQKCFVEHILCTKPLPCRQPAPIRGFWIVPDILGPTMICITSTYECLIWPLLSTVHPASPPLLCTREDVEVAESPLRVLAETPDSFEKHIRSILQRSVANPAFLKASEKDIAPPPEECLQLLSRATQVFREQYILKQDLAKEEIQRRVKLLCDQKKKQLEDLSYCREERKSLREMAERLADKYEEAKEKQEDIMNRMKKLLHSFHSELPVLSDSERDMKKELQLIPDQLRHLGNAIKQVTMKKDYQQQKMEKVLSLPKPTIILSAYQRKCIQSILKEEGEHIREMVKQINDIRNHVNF

GFP-Nup88-C (human) = target: T3, GFP-Nup88-C (human) (UniProt Q99567); experiment: as above
T3 sequence: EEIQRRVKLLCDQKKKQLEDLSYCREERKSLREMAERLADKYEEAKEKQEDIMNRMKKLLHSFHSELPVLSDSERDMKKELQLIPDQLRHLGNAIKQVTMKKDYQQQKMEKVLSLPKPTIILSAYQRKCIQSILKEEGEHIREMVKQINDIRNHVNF

GST-Nup88-C (human) [2] = target: T4, GST-Nup88-C (human) (UniProt Q99567); experiment: pull-down; 20 µg GST fusion protein on glutathione beads, 500 µg HEK293T cell lysate (endogenous proteins or expressed GFP fusions), 1 h at 4 °C; wash buffer 20 mM Tris, 150 mM NaCl, 1 mM EDTA; western blot; only the target purified
T4 sequence: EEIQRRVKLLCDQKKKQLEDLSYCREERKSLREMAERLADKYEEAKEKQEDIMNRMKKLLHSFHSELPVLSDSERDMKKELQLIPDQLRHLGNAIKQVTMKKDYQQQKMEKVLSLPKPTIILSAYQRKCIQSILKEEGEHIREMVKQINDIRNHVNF

GFP-Nup88 (human) [3] = target: T2, GFP-Nup88 (human); experiment: pull-down; GBP pull-down of GFP-Nup88 from lysates of HeLa cells synchronized at G1/S and released for the indicated time intervals; blot for GFP and Nup62
GST-Nup88-C (human) [4] = target: T4, GST-Nup88-C (human); experiment: pull-down; GST fusion protein on glutathione beads, lysates of asynchronous and synchronized HeLa cells, 1 h at 4 °C; western blot; only the target purified
GST-Nup88-C (human) [5] = target: T4, GST-Nup88-C (human); experiment: pull-down; Figure S3: Nup88-C or PPL-C as bait; endogenous Nup62 and exogenously expressed GFP-Nup62-C1 as prey; methods not shown
[6] = target: T5, Nup88-C, GAL4 DNA binding domain construct (pGBDU) (human) (UniProt Q99567); experiment: two-hybrid; yeast strain PJ69-4A, pGBDU (DNA binding domain) and pGAD (activation domain) constructs; growth on medium lacking Leu, Ura and His, 30 °C, three days
T5 sequence: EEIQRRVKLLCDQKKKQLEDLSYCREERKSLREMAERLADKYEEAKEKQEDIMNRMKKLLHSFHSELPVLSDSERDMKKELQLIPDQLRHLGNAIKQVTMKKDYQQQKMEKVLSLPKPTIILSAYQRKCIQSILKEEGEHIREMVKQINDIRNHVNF

GST-Nup62-C1 = GST-Nup62-C1 (UniProt P37198); experiment: pull-down; 20 µg GST fusion protein on glutathione beads, 500 µg HEK293T cell lysate (endogenous proteins or expressed GFP fusions), 1 h at 4 °C; wash buffer 20 mM Tris, 150 mM NaCl, 1 mM EDTA; western blot; only the target purified

binding (GFP-Nup88-delC (human)): no binding
binding (GFP-Nup88 (human) [1]): binds
binding (GFP-Nup88-C (human)): binds
binding (GST-Nup88-C (human) [2]): binds
binding (GFP-Nup88 (human) [3]): binds
binding (GST-Nup88-C (human) [4]): binds
binding (GST-Nup88-C (human) [5]): binds
Molecule: endogenous Nup62 (from UniProt P37198 1-522)

binding (GST-Nup88-C (human) [2]): binds
Molecule: GFP-Nup62 (from UniProt P37198 1-522)

binding [6]: binds
Molecule: Nup62-C1, GAL4 activation domain construct (pGAD) (from UniProt P37198 328-458) (domain or fragment)

binding (GST-Nup62-C1): binds
B1: GFP-Nup88-C (domain or fragment, UniProt Q99567 585-741)
chain: EEIQRRVKLLCDQKKKQLEDLSYCREERKSLREMAERLADKYEEAKEKQEDIMNRMKKLLHSFHSELPVLSDSERDMKKELQLIPDQLRHLGNAIKQVTMKKDYQQQKMEKVLSLPKPTIILSAYQRKCIQSILKEEGEHIREMVKQINDIRNHVNF

More lines, now with the values behind:

Molecule: GFP-Nup62-C1 (from UniProt P37198 328-458) (domain or fragment)
binding (GST-Nup88-C (human) [2]): binds
binding (GST-Nup88-C (human) [5]): binds

Molecule: NF-κB (p65), endogenous (from UniProt Q04206 1-551)
binding (GST-Nup88-C (human) [2]): no binding
binding (GST-Nup62-C1): no binding

B2: GFP-Nup88-delC (domain or fragment, UniProt Q99567 1-584)
chain: MAAAEGPVGDGELWQTWLPNHVVFLRLREGLKNQSPTEAEKPASSSLPSSPPPQLLTRNVVFGLGGELFLWDGEDSSFLVVRLRGPSGGGEEPALSQYQRLLCINPPLFEIYQVLLSPTQHHVALIGIKGLMVLELPKRWGKNSEFEGGKSTVNCSTTPVAERFFTSSTSLTLKHAAWYPSEILDPHVVLLTSDNVIRIYSLREPQTPTNVIILSEAEEESLVLNKGRAYTASLGETAVAFDFGPLAAVPKTLFGQNGKDEVVAYPLYILYENGETFLTYISLLHSPGNIGKLLGPLPMHPAAEDNYGYDACAVLCLPCVPNILVIATESGMLYHCVVLEGEEEDDHTSEKSWDSRIDLIPSLYVFECVELELALKLASGEDDPFDSDFSCPVKLHRDPKCPSRYHCTHEAGVHSVGLTWIHKLHKFLGSDEEDKDSLQELSTEQKCFVEHILCTKPLPCRQPAPIRGFWIVPDILGPTMICITSTYECLIWPLLSTVHPASPPLLCTREDVEVAESPLRVLAETPDSFEKHIRSILQRSVANPAFLKASEKDIAPPPEECLQLLSRATQVFREQYILKQDLAK
binding (GST-Nup62-C1): no binding
